Measured values taken from PubChem BioAssay (NCI).
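The compound was tested at five concentrations on cells cultured in 96-well plates, with a 48-hour exposure period. GI50 is the concentration that inhibits growth by half. Definition used: TGI = concentration required for complete inhibition of growth.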

These molecules were tested on NCI-H322M lung (assay: NCI-60 cell line screen, 48 h).
In the case of `Cc1cc(C(NC(=O)C2CC3(CC(Nc4cccc5c4C(=O)N(C4CCC(=O)NC4=O)C5=O)C3)C2)c2ccc3c(c2)OC(F)(F)O3)c(O)c2ncccc12` (stereo not drawn), the GI50 is reported as 0.419 µM and the TGI is reported as > 100 µM. For `Cn1cc(-c2cc3nc(-c4c[nH]c5ccccc45)cc(N)n3n2)c2ccccc21`, the GI50 was 3.12 µM and the TGI was 12 µM. `COc1cc2oc(-c3cccc(C(=O)Nc4ccc(Cl)cc4)c3)cc(=O)c2c(OCCN)c1OC` gave a GI50 of 9.46 µM and a TGI of 21.3 µM. `COc1ccc(OC)c(/C=C/C(=O)c2nc3ccccc3n2Cc2ccc(F)cc2)c1` was tested, and the GI50 was 3.08 µM and the TGI was 19.3 µM.
